Measurements: publication PMC9911399, “Two distinct binding modes provide the RNA-binding protein RbFox with extraordinary sequence specificity”
Changes are numbered by the printed parent chain; changes in the protein carry UniProt numbers. Some of the results follow.

T1: RBFOX1 RRM RbFoxmut (Fox-RRM*) (Homo sapiens, UniProt Q9NWB1 109-208, R118D;E147R;N151S;E152T)
T1 sequence: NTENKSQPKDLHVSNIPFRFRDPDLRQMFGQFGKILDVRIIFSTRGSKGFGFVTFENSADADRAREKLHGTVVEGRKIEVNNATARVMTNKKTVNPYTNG

B1: CCUUCGU (DNA:RNA)
RNA: GGGAGACCGGAAUUCAGAUUGUCCCCUUCGUUUAAAUCCCGUCGUAGCCACCA
DNA 1: CAATCTGAATTCCGGTCTCCC
DNA 2: TGGTGGCTACGACGGGATT
B2: UUCCGGG (DNA:RNA)
RNA: B1 RNA with C25U, C26U, U27C, U28C, C29G, U31G
DNA 1: CAATCTGAATTCCGGTCTCCC
DNA 2: TGGTGGCTACGACGGGATT
B3: AGCAGGC (DNA:RNA)
RNA: B1 RNA with C25A, C26G, U27C, U28A, C29G, U31C
DNA 1: CAATCTGAATTCCGGTCTCCC
DNA 2: TGGTGGCTACGACGGGATT
B4: AGCCGGA (DNA:RNA)
RNA: B1 RNA with C25A, C26G, U27C, U28C, C29G, U31A
DNA 1: CAATCTGAATTCCGGTCTCCC
DNA 2: TGGTGGCTACGACGGGATT
B5: GGGCAGG (DNA:RNA)
RNA: B1 RNA with C25G, C26G, U27G, U28C, C29A, U31G
DNA 1: CAATCTGAATTCCGGTCTCCC
DNA 2: TGGTGGCTACGACGGGATT
B6: CAGUUAU (DNA:RNA)
RNA: B1 RNA with C26A, U27G, C29U, G30A
DNA 1: CAATCTGAATTCCGGTCTCCC
DNA 2: TGGTGGCTACGACGGGATT
B7: GUGAUUC (DNA:RNA)
RNA: GGGAGACCGGAAUUCAGAUUGUCCGUGAUUCUUAAAUCCCGUCGUAGCCACCA
DNA 1: CAATCTGAATTCCGGTCTCCC
DNA 2: TGGTGGCTACGACGGGATT
B8: CCUCAUG (DNA:RNA)
RNA: B1 RNA with U28C, C29A, G30U, U31G
DNA 1: CAATCTGAATTCCGGTCTCCC
DNA 2: TGGTGGCTACGACGGGATT
B9: CUACGGG (DNA:RNA)
RNA: B1 RNA with C26U, U27A, U28C, C29G, U31G
DNA 1: CAATCTGAATTCCGGTCTCCC
DNA 2: TGGTGGCTACGACGGGATT
B10: UUUUUGG (DNA:RNA)
RNA: B1 RNA with C25U, C26U, C29U, U31G
DNA 1: CAATCTGAATTCCGGTCTCCC
DNA 2: TGGTGGCTACGACGGGATT
B11: GUGUAGC (DNA:RNA)
RNA: B7 RNA with A28U, U29A, U30G
DNA 1: CAATCTGAATTCCGGTCTCCC
DNA 2: TGGTGGCTACGACGGGATT
B12: CAGUAUU (DNA:RNA)
RNA: B1 RNA with C26A, U27G, C29A, G30U
DNA 1: CAATCTGAATTCCGGTCTCCC
DNA 2: TGGTGGCTACGACGGGATT
B13: UCAUCGG (DNA:RNA)
RNA: B1 RNA with C25U, U27A, U31G
DNA 1: CAATCTGAATTCCGGTCTCCC
DNA 2: TGGTGGCTACGACGGGATT
B14: ACGUUGA (DNA:RNA)
RNA: B1 RNA with C25A, U27G, C29U, U31A
DNA 1: CAATCTGAATTCCGGTCTCCC
DNA 2: TGGTGGCTACGACGGGATT
B15: GCCGUUA (DNA:RNA)
RNA: B7 RNA with U26C, G27C, A28G, C31A
DNA 1: CAATCTGAATTCCGGTCTCCC
DNA 2: TGGTGGCTACGACGGGATT
B16: UCAAUAG (DNA:RNA)
RNA: B7 RNA with G25U, U26C, G27A, U30A, C31G
DNA 1: CAATCTGAATTCCGGTCTCCC
DNA 2: TGGTGGCTACGACGGGATT
B17: ACGAAGA (DNA:RNA)
RNA: B1 RNA with C25A, U27G, U28A, C29A, U31A
DNA 1: CAATCTGAATTCCGGTCTCCC
DNA 2: TGGTGGCTACGACGGGATT
B18: CCACCGU (DNA:RNA)
RNA: B1 RNA with U27A, U28C
DNA 1: CAATCTGAATTCCGGTCTCCC
DNA 2: TGGTGGCTACGACGGGATT
B19: CCCGCAA (DNA:RNA)
RNA: B1 RNA with U27C, U28G, G30A, U31A
DNA 1: CAATCTGAATTCCGGTCTCCC
DNA 2: TGGTGGCTACGACGGGATT
B20: GUGAAAC (DNA:RNA)
RNA: B7 RNA with U29A, U30A
DNA 1: CAATCTGAATTCCGGTCTCCC
DNA 2: TGGTGGCTACGACGGGATT
B21: UCUGAGA (DNA:RNA)
RNA: B1 RNA with C25U, U28G, C29A, U31A
DNA 1: CAATCTGAATTCCGGTCTCCC
DNA 2: TGGTGGCTACGACGGGATT
B22: CUGCCCU (DNA:RNA)
RNA: B1 RNA with C26U, U27G, U28C, G30C
DNA 1: CAATCTGAATTCCGGTCTCCC
DNA 2: TGGTGGCTACGACGGGATT
B23: CGCACUG (DNA:RNA)
RNA: B1 RNA with C26G, U27C, U28A, G30U, U31G
DNA 1: CAATCTGAATTCCGGTCTCCC
DNA 2: TGGTGGCTACGACGGGATT
B24: GCACUCU (DNA:RNA)
RNA: B1 RNA with C25G, U27A, U28C, C29U, G30C
DNA 1: CAATCTGAATTCCGGTCTCCC
DNA 2: TGGTGGCTACGACGGGATT
B25: AUGUAAG (DNA:RNA)
RNA: B7 RNA with G25A, A28U, U29A, U30A, C31G
DNA 1: CAATCTGAATTCCGGTCTCCC
DNA 2: TGGTGGCTACGACGGGATT
B26: GUUCGUG (DNA:RNA)
RNA: B7 RNA with G27U, A28C, U29G, C31G
DNA 1: CAATCTGAATTCCGGTCTCCC
DNA 2: TGGTGGCTACGACGGGATT
B27: CUCUGUU (DNA:RNA)
RNA: B1 RNA with C26U, U27C, C29G, G30U
DNA 1: CAATCTGAATTCCGGTCTCCC
DNA 2: TGGTGGCTACGACGGGATT
B28: GGUUGAG (DNA:RNA)
RNA: B1 RNA with C25G, C26G, C29G, G30A, U31G
DNA 1: CAATCTGAATTCCGGTCTCCC
DNA 2: TGGTGGCTACGACGGGATT
B29: CAGAGGC (DNA:RNA)
RNA: B7 RNA with G25C, U26A, U29G, U30G
DNA 1: CAATCTGAATTCCGGTCTCCC
DNA 2: TGGTGGCTACGACGGGATT
B30: UGGUCCG (DNA:RNA)
RNA: B1 RNA with C25U, C26G, U27G, G30C, U31G
DNA 1: CAATCTGAATTCCGGTCTCCC
DNA 2: TGGTGGCTACGACGGGATT
B31: CCAGUCC (DNA:RNA)
RNA: B1 RNA with U27A, U28G, C29U, G30C, U31C
DNA 1: CAATCTGAATTCCGGTCTCCC
DNA 2: TGGTGGCTACGACGGGATT

target: T1, RBFOX1 RRM RbFoxmut (Fox-RRM*); assay: EMSA; HiTS-Eq, 1 nM pool, 10 min; buffer printed only for the single-RNA assays: 10 mM Tris pH 7.5, 150 mM NaCl, 3.4 mM EDTA, 0.001% NP-40, 30 C; conditions: tags: His6 N-terminal (pET28a); label: 5' 32P
Summary of the method: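 Relative association constants, normalised to the cognate motif, were derived by comparing read counts of each RNA species with those of the control reaction. The RNA sequenced was the free fraction, separated by 8% native PAGE after a 10 min equilibration in 50 µL of 1 nM 5′-radiolabelled RNA (7 randomized nucleotides) with increasing concentrations of purified wild-type or mutant RbFox RRM.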

Binder	binding signal
B1	0.0852 KA relative to UGCAUGU
B2	0.0707 KA relative to UGCAUGU
B3	0.0869 KA relative to UGCAUGU
B4	0.0626 KA relative to UGCAUGU
B5	0.0849 KA relative to UGCAUGU
B6	0.133 KA relative to UGCAUGU
B7	0.159 KA relative to UGCAUGU
B8	0.101 KA relative to UGCAUGU
B9	0.061 KA relative to UGCAUGU
B10	0.0788 KA relative to UGCAUGU
B11	0.134 KA relative to UGCAUGU
B12	0.119 KA relative to UGCAUGU
B13	0.0932 KA relative to UGCAUGU
B14	0.113 KA relative to UGCAUGU
B15	0.0968 KA relative to UGCAUGU
B16	0.0794 KA relative to UGCAUGU

Binder	binding signal
B17	0.105 KA relative to UGCAUGU
B18	0.11 KA relative to UGCAUGU
B19	0.105 KA relative to UGCAUGU
B20	0.0782 KA relative to UGCAUGU
B21	0.0725 KA relative to UGCAUGU
B22	0.101 KA relative to UGCAUGU
B23	0.125 KA relative to UGCAUGU
B24	0.0369 KA relative to UGCAUGU
B25	0.159 KA relative to UGCAUGU
B26	0.184 KA relative to UGCAUGU
B27	0.104 KA relative to UGCAUGU
B28	0.171 KA relative to UGCAUGU
B29	0.089 KA relative to UGCAUGU
B30	0.265 KA relative to UGCAUGU
B31	0.0891 KA relative to UGCAUGU
